Molecular target: T1, human PD-1 (amino acids 1-185) stably expressed on Jurkat cells (human, UniProt Q15116 in part)
T1 construct: extracellular domain and a portion of the transmembrane domain, on cells; also called hPD-1; Jurkat+hPD-1 cell line
Experiment: flow cytometry, Jurkat+hPD-1 cells, APC anti-human IgG Fc, gMFI; no competitor

T1 sequence (Q15116 21-185 limits assumed, form in doubt): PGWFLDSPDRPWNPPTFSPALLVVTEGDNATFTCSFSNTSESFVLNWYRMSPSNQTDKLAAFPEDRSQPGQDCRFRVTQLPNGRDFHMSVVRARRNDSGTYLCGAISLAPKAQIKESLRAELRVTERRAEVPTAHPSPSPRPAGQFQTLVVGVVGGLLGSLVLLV

B1: A2-hIgG4-df-hIL-2 (D20A/R38E) (other)
heavy: DVQLVESGGGLVQPGGSLRLSCAASGFTFDISAMSWVRQAPGKGLEWVSTISGSAYSTYYADSVKGRFTISRDNSKSTLYLQMNSLRAEDTAVYYCAREIFSDYWGLGTLVTVSSASTKGPSVFPLAPCSRSTSESTAALGCLVKDYFPEPVTVSWNSGALTSGVHTFPAVLQSSGLYSLSSVVTVPSSSLGTKTYTCNVDHKPSNTKVDKRV[sequence of about 350 residues with a human IgG4 Fc omitted]
light: QSVLTQPPSASGTPGQRVTISCSGSTSNIGRESVYWYQQLPGTAPKLLIYSNVQRPSGAPNRFSGSKSGTSASLAISGLQSEDEADYYCGTWDDSLNGWVFGGGTKLTVLGQPKAAPSVTLFPPSSEELQANKATLVCLISDFYPGAVTVAWKADSSPVKAGVETTTPSKQSNNKYAASSYLSLTPEQWKSHRSYSCQVTHEGSTVEKTVAPTECS
EC50 (read off the curve): ~5 nM
